PubChem BioAssay AID651820 (National Center for Advancing Translational Sciences (NCATS), 2012)
Several values for one entry are separate records, joined by “and”; a condition that tells them apart may be missing. Identical values can stand only once. In all, about 340,000 compounds went through this assay and about 12,000 (3.5%) were called active. The shares of active, inactive and inconclusive entries below differ from those in the screen. The call rests on the fitted dose curve; in most records, active means well fitted inhibition curve with a large enough effect; inconclusive means small, poorly fitted or top-dose-only effect, or another doubt; inactive means no such curve, though single readings can be large or run the other way. Potencies of inconclusive entries are doubtful fits and often do not repeat.

Experiment: qHTS Assay for Inhibitors of Hepatitis C Virus (HCV)
Settings: Huh7.5.1 HCVcc-Cre (HCVcc is cell-culture hepatitis C virus) infection, luciferase reporter, 44 h; series mostly up to 41.8 µM
How it was run: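 Whole-lifecycle infectious HCVcc-Cre system; cells 1,000/well, compound then virus (~0.5 moi) added 4 h after plating, 44 h culture. Luciferase read 15 sec following 15 min substrate incubation, room temp.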
Potency means the concentration at half of the fitted maximal effect; tags describe the fitted curve by direction and shape.

| SMILES | Potency |
| --- | --- |
| Cc1ccc(C(OC(=O)c2ccco2)C(=O)NC2CCCC2)cc1 (stereo not drawn) | inactive |
| Cc1ccc(C)c(OCC(=O)Nc2ccc(S(=O)(=O)N3CCN(C)CC3)cc2)c1 | inactive |
| CC1CCN(C(=O)Cn2nnc(-c3ccc(C(C)C)cc3)n2)CC1 | inconclusive: 22.4 µM [inhibitor, single point] |
| O=C(NCc1ccc(Cl)cc1)c1ccc(CS(=O)Cc2cccc(Cl)c2)o1 (stereo not drawn) | inactive |
| Cc1cc(Cl)cc(C)c1OCC(=O)N1CCN(c2ncccn2)CC1 | inactive |
| O=C(CSc1nc2[nH]ncc2c(=O)n1-c1ccccc1Cl)N1CCCC1 | inactive |
| CN(Cc1ccccc1)C(=O)c1ccc([N+](=O)[O-])o1 | inconclusive: 35.5 µM [inhibitor, partial curve, poor fit] |
| CCOC(=O)c1c(CN2CCN(C)CC2)n(C)c2cc(Br)c(OC)cc12 | inconclusive: 5.62 µM [inhibitor, partial curve] |
| COc1ccc2nc(NC(=O)C3CCN(S(=O)(=O)c4cccc5nsnc45)CC3)sc2c1 | inconclusive: 31.6 µM [inhibitor, single point] |
| C=CCOc1c(Br)cc(CNCCCN2CCOCC2)cc1OC | inconclusive: 11.2 µM [inhibitor, partial curve] |
| CSc1cc(-c2ccco2)oc1C(=O)c1ccco1 | inconclusive: 7.94 µM [inhibitor, partial curve] |
| CCOc1ccc(N(C)S(=O)(=O)c2ccc3[nH]cc(C(=O)NCC(OC)OC)c(=O)c3c2)cc1 | inconclusive: 14.1 µM [inhibitor, single point] |
| CCN(CC)C(=O)[C@H]1C[C@H](CC(=O)NCc2ccco2)C(=O)N2CCc3c([nH]c4cc(-c5ccco5)ccc34)[C@]12C | inconclusive: 31.6 µM [inhibitor, single point] |
| Cc1ccc(NC(=O)CN(C)C(=O)c2ccccn2)cc1 | inconclusive: 1.26 µM [inhibitor, partial curve] |
| CN(CC(=O)Nc1ccc(OC(F)(F)F)cc1)C(=O)c1ccc(N2CCCC2=O)cc1 | active: 4.47 µM |
| O=C(Nc1sc2c(c1C(=O)O)CCCC2)c1cccs1 | inconclusive: 31.6 µM [inhibitor, single point] |
| COCCNC(=O)Nc1ccc2nc(-c3cccs3)c(-c3cccs3)nc2c1 | inconclusive: 11.2 µM [inhibitor, single point] |
| COc1ccc(N(C)C(=O)c2ccc3nc(-c4ccccc4)c(-c4ccccc4)nc3c2)cc1 | active: 11.2 µM |
| COC(=O)Cn1cnc2scc(-c3ccc(C)cc3)c2c1=O | inconclusive: 5.62 µM [inhibitor, single point] |
| CCOC(=O)C1(CCc2ccccc2)CCN(Cc2ccc3c(c2)OCCO3)CC1 | inconclusive: 11.2 µM [inhibitor, partial curve] |
| CCN(CC)S(=O)(=O)c1cc(NC(=O)C2CCN(c3ncnc4sc(C)c(C)c34)CC2)ccc1Cl | active: 6.31 µM |
| CCOc1ccc(NS(=O)(=O)c2ccc(C(=O)NCC3(N(C)C)CCCCC3)cc2)cc1 | inconclusive: 7.94 µM [inhibitor, partial curve] |
| Cc1ccc(-c2csc(NC(=O)COc3ccc(N(C)S(=O)(=O)c4ccc(C)cc4)cc3)n2)cc1 | active: 7.94 µM |

| SMILES | Potency |
| --- | --- |
| COc1ccc(S(=O)(=O)N2CCC(N3CCN(c4ccccc4OC)CC3)CC2)cc1 | inconclusive: 31.6 µM [inhibitor, single point] |
| CN1CC(C(=O)c2ccc(Cl)cc2)C(c2ccc(N(C)C)cc2)C1 (stereo not drawn) | inactive |
| Cc1[nH]c2ccccc2c1/C=C(\C#N)C(=O)NC1CC1 | inconclusive: 15.8 µM [inhibitor, single point] |
| COc1ccc(C2C=C(c3ccc(F)cc3)NC(=S)N2)cc1OC (stereo not drawn) | inconclusive: 31.6 µM [inhibitor, single point] |
| COC(=O)c1ccccc1NC(=O)CSc1nnc(C(CO)NC(=O)c2ccccc2Cl)n1C (stereo not drawn) | inconclusive: 2.24 µM [inhibitor, single point] |
| Cc1ccc(-c2nc3ccccc3c(C(=O)NCc3cccs3)c2C)cc1 | inconclusive: 11.2 µM [inhibitor, single point] |
| COc1ccc(Cl)cc1NC(=O)CN(C)C(=O)C1CC(=O)N(Cc2ccc(C)cc2)C1 (stereo not drawn) | active: 31.6 µM |
| COc1ccc(S(=O)(=O)Cc2ccc(C(=O)N3CCN(c4cccc(C)c4C)CC3)o2)cc1 | inconclusive: 31.6 µM [inhibitor, single point] and inconclusive: 22.4 µM [inhibitor, single point] |
| Cc1cccc(N2CCN(C(=O)c3cccc(N4C(=O)C5C6C=CC(C6)C5C4=O)c3)CC2C)c1 (stereo not drawn) | inconclusive: 22.4 µM [inhibitor, single point] |
| CCOc1ccc(/C=C/C(=O)Oc2ccc(OC)cc2)cc1 | inactive |
| CC(/C=C/c1ccccc1)=N\NC(=O)c1cc(C)[nH]n1 | active: 14.1 µM |
| Cc1cccc(N2CCN(C(=O)NC3CCCCC3)CC2)c1C | inconclusive: 31.6 µM [inhibitor, single point] |
| COc1ccc(OC)c2c1sc(=NC(=O)C(C)(C)C)n2C | active: 10 µM |
| COc1ccccc1NC(=O)CSc1ccc(-c2ccccn2)nn1 | inconclusive: 11.2 µM [inhibitor, partial curve] |
| COc1ccc2c(=O)c3c(=O)n(CCc4ccccc4)c(C)nc3oc2c1 | inactive |
| CC1(C)CC(NCc2ccccc2)CCO1 (stereo not drawn) | inactive |
| c1cncc(-c2nc(N3CCOCC3)c3c4c(sc3n2)CCC4)c1 | inconclusive: 5.01 µM [inhibitor, full curve] |
| Cc1ccc(OCC(=O)N/N=C/c2cc([N+](=O)[O-])ccc2N2CCCCC2)cc1 | inconclusive: 0.562 µM [inhibitor, full curve] |
| O=C1CC(=O)N(c2ccccc2)C(=O)N1c1ccccc1 | inactive |
| O=C(CCl)N(O)c1ccc(C=Cc2ccccc2)cc1 | inconclusive: 7.94 µM [inhibitor, partial curve] |
| [O-][n+]1ccccc1SCc1ccccc1 | inconclusive: 35.5 µM [inhibitor, partial curve, poor fit] |
| COc1ccc(OC)c(-c2csc(NC(=O)CSc3ccc([N+](=O)[O-])cc3)n2)c1 | active: 10 µM |
| O=[N+]([O-])c1cc([N+](=O)[O-])c2c(=Nc3ccccc3)n(-c3ccccc3)n(O)c2c1 | inconclusive: 8.91 µM [inhibitor, partial curve] |

| SMILES | Potency |
| --- | --- |
| O=C(NCCCN1CCN(Cc2ccccc2)CC1)C1CCN(c2nnc(-n3cccc3)s2)CC1 | inconclusive: 11.2 µM [inhibitor, single point] |
| COc1ccc(NC(=O)Nc2cc3oc4ccccc4c3cc2OC)cc1 | inconclusive: 20 µM [inhibitor, partial curve, poor fit] |
| COC(=O)C1=C(c2ccccc2OCc2ccccc2)C[C@@H]2CC[C@H]1N2C(=O)NCc1ccc(C(F)(F)F)cc1 | active: 10 µM |
| CC(=O)O[C@@H]1C[C@H]2C(C)(C)C(=O)C=C[C@]2(C)[C@H]2CC[C@@]3(C)[C@H](c4ccoc4)OC(=O)[C@H]4O[C@]43[C@@]21C | inconclusive: 22.4 µM [inhibitor, partial curve] |
| OCCNc1nc(Nc2ccccc2)nc(Nc2ccccc2)n1 | inconclusive: 31.6 µM [inhibitor, single point] |
| CCOC(=O)c1cc(-c2ccccc2)nc2c1c(C)nn2-c1ccccn1 | active: 10 µM |
| COc1ccc(/C=N\NS(=O)(=O)c2ccc(Br)cc2)cc1COc1ccccc1[N+](=O)[O-] | inconclusive: 31.6 µM [inhibitor, single point] |
| C=CCN(CC=C)S(=O)(=O)c1ccc(NC(=S)NC(=O)/C=C/c2ccc(C)cc2)cc1 | inconclusive: 31.6 µM [inhibitor, single point] |
| COc1cc(Br)c(/C=C/c2ccc3cccc(O)c3n2)cc1OC | active: 10 µM |
| Cc1cc(NC(=O)c2cnn3cccnc23)n(-c2ccccc2)n1 | active: 12.6 µM |
| O=C(CSCc1ccc(Cl)cc1)Nc1ccc(S(=O)(=O)N2CCOCC2)cc1 | inactive |
| COCCCNC(=O)c1ccc2c(=O)n(Cc3ccccc3OC)c(=S)[nH]c2c1 | inconclusive: 10 µM [inhibitor, partial curve] |
| CCCCN(C)CCNC(=O)c1ccc(Cn2c(=S)[nH]c3ccc(Br)cc3c2=O)cc1 | active: 11.2 µM |
| CCOc1ccc(CCNC(=O)c2cc3sccc3n2CC)cc1OCC | active: 7.94 µM |
| Cc1ccccc1N1CC(=O)Nc2c(oc3nc(-c4ccccc4)cc(C)c23)C1=O | inconclusive: 11.2 µM [inhibitor, single point] |
| CC1(C)CC(=O)C=C(c2cccs2)C1 | inactive |
| O=C(/C=C/c1cccnc1)c1ccc(F)c(F)c1 | inactive |
| Cc1onc(-c2ccccc2)c1CNC(=O)Nc1cccc(Cl)c1 | inconclusive: 12.6 µM [inhibitor, partial curve] |
| CCc1nc2ccc(C(=O)N3CCN(c4cc(C)ccc4C)CC3)cc2nc1CC | inconclusive: 10 µM [inhibitor, single point] |
| O=[N+]([O-])c1ccc2nc(CCCO)[nH]c2c1 | inactive |
| O=C(Cc1coc2ccc3ccccc3c12)Nc1nnc(C2CC2)s1 | inconclusive: 31.6 µM [inhibitor, single point] |
| CC(C)=CCc1c(O)ccc(C2COc3c(CC=C(C)C)c(O)cc(O)c3C2=O)c1O (stereo not drawn) | inconclusive: 31.6 µM [inhibitor, single point] |
